Source: PubChem BioAssay AID588855 (National Center for Advancing Translational Sciences (NCATS), 2011)
Out of some 410,000 compounds screened, about 5,000 (1.2%) were called active. Inconclusive means that the source gave no clear call. Such entries were picked first, then a sample of the others. The call rests on the fitted dose curve; in most records, active means well fitted inhibition curve with a large enough effect; inconclusive means small, poorly fitted or top-dose-only effect; inactive means no such curve, though single readings can be large or run the other way. Potencies beside an inconclusive call are fits to weak or partial responses and may not hold up.

Assay: qHTS for Inhibitors of TGF-b; further: nearly all actives have a fitted effect of over 65% in size
Settings: HepG2 CAGA-GFP TGF-b/SMAD3 reporter, GFP fluorescence, 18 h, TGF-beta stimulated, 500 pg/mL final; series mostly up to 46.1 µM; activity, negative = inhibition: at the top concentration
Method in brief: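 TGF-beta reporter screen: HEPG2 CAGA-GFP, 1% FBS, 500 pg/mL TGF-beta final, 18 h; per-cell GFP summed per well; curves fitted and categorized by class.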
On the % scale 0 is the no-effect control and ±100 the full control effect; potency means the concentration at half of the fitted maximal effect; tags describe the fitted curve by direction and shape.

Structure (SMILES)	activity, negative = inhibition	Potency
Cc1ccc(N=Cc2ccc[nH]2)c(O)c1	inactive: -19.1%	
COc1ccc(/C=N\NC(=O)c2cc(O)c(O)c(O)c2)cc1COc1ccc(C(=O)OCC(C)C)cc1		inconclusive: 31.6 µM [inhibitor, single point]
O=C(C1CCN(S(=O)(=O)c2cccc3nonc23)CC1)N1CCN(c2cccc(Cl)c2)CC1		inconclusive: 14.1 µM [inhibitor, single point]
COC(=O)C1=C(C(=O)OC)[C@@H]2N(Cc3ccccc3)c3ccccc3[C@@]23C[C@@H](C(=O)OC)N(C(=O)NC(C)(C)C)C3=N1		inconclusive: 5.62 µM [inhibitor, single point]
CCOC(=O)CSc1nnc(CSc2nc(N)c3c(C)c(C)sc3n2)n1-c1ccccc1		inconclusive: 25.1 µM [inhibitor, partial curve, poor fit]
CCOc1ccc(NC(=O)c2c[nH]n3c(=O)cc(C4CCN(C(=O)OC(C)(C)C)CC4)nc23)cc1		inconclusive: 6.31 µM [inhibitor, single point]
CC(=O)Nc1ccc(S(=O)(=O)Oc2cccc(N3C(=O)C4CCCCC4C3=O)c2)cc1 (stereo unspecified)		inconclusive: 3.55 µM [inhibitor, partial curve, poor fit]
Cc1nn(-c2ccc(F)cc2)c(-n2cccc2)c1C(=O)NCCc1ccc(Cl)cc1		inconclusive: 35.5 µM [inhibitor, single point]
CCc1cc2c(=O)n(CC)c(SC(C)C(=O)Nc3c(C)n(C)n(-c4ccccc4)c3=O)nc2s1 (stereo unspecified)		inconclusive: 35.5 µM [inhibitor, single point]
CC1(CCc2ccc3c(c2)OCO3)NCCc2c1[nH]c1ccccc21 (stereo unspecified)		inconclusive: 35.5 µM [inhibitor, single point]
Cc1cc(C)n(CCCNC(=O)C(C)(C)Oc2ccc(Cl)cc2)n1	inactive: 1.17%	
COc1ccc2sc(N(Cc3cccnc3)C(=O)C3CCCCC3)nc2c1		inconclusive: 35.5 µM [inhibitor, single point]
O=C(Cn1c(=O)n(CC2CCC(C(=O)NCCc3ccccc3)CC2)c(=O)c2ccccc21)Nc1ccccc1 (stereo unspecified)		inconclusive: 35.5 µM [inhibitor, single point]
CC(=O)c1cccc(N(C(=O)c2ccco2)C(C(=O)NC2CCCC2)c2ccc(N3CCOCC3)cc2)c1 (stereo unspecified)	inactive: 6.01%	
CN(C)c1ccc(CNc2ccc3c(c2)ncn3C)cc1	inactive: 0.722%	
CCCCC(=O)Nc1cc(N(C)C)nc2ccccc12		inconclusive: 17.8 µM [inhibitor, single point]
O=C(c1ccc(F)cc1)C(CCCCCC(CN1CCOCC1)C(=O)c1ccc(F)cc1)CN1CCOCC1 (stereo unspecified)	inactive: -2.42%	
CC(C)C[C@@H](CO)N1CCN(Cc2ccc(Br)cc2)CCC1=O		inconclusive: 12.6 µM [inhibitor, partial curve, poor fit]
CCN(CC)S(=O)(=O)c1cc(C(=O)Nc2ccccc2[N+](=O)[O-])ccc1Cl		active: 15.8 µM
CCOC(=O)N1CCN(C(=O)C2CCCN(Cc3nc(-c4ccc(Cl)cc4)oc3C)C2)CC1 (stereo unspecified)		inconclusive: 3.16 µM [inhibitor, full curve]
CCOC(=O)c1sc2nc(C)nc(NCc3ccc(F)cc3)c2c1C		inconclusive: 25.1 µM [inhibitor, single point]
Cc1sc2ncnc(Nc3ccc(N4CCOCC4)cc3)c2c1-c1ccccc1		inconclusive: 35.5 µM [inhibitor, single point]

Structure (SMILES)	activity, negative = inhibition	Potency
Cc1cc(F)ccc1S(=O)(=O)Nc1ccccc1C(=O)Nc1ncn[nH]1	inactive: 19.5%	
Cc1cccc(NS(=O)(=O)c2ccc3[nH]c4c(c3c2)CCCCCC4)c1		active: 10 µM
CCN(CC)C(=O)c1cccc(NC(=O)c2ccccc2OCc2c(C)noc2C)c1	inactive: -10.1%	
Cc1ccc(C)c(N2CCN(C(=O)c3cc4c(=O)n(Cc5ccccc5)ccc4nc3C)CC2)c1		active: 10 µM
CNC(=S)NCc1ccc(Cl)cc1	inactive: -13.8%	
Cc1ccc(CN(Cc2ccco2)C(=O)c2ccc(OCC(C)C)cc2)cc1		inconclusive: 22.4 µM [inhibitor, single point]
COc1cccc(CSc2nc3ccccc3cc2C=O)c1		inconclusive: 35.5 µM [inhibitor, single point]
CCC(=O)N1N=C(c2ccc(NS(=O)(=O)c3ccc(C)cc3)cc2)CC1c1ccco1 (stereo unspecified)		inconclusive: 35.5 µM [inhibitor, single point]
O=C(Cc1ccccc1)Nc1cc(Cl)ccc1Sc1ccccc1		inconclusive: 22.4 µM [inhibitor, single point]
COC(C(=O)C(O)C(C)O)C1Cc2cc3cc(OC4CC(OC5CC(O)C(O)C(C)O5)C(O)C(C)O4)c(C)c(O)c3c(O)c2C(=O)C1OC1CC(OC2CC(OC3CC(O)C(OC)C(C)O3)C(O)C(C)O2)C(O)C(C)O1 (stereo unspecified)		active: 1 µM
N#CC(c1ccc([N+](=O)[O-])cc1)C(CC(=O)c1ccccc1)c1ccccc1 (stereo unspecified)		inconclusive: 35.5 µM [inhibitor, partial curve, poor fit]
CC1Cc2ccccc2N1c1ncnc2c1nnn2Cc1ccccc1Cl (stereo unspecified)	inactive: -7.44%	
Cc1nonc1OCCNCc1c(C(=O)N(C)C)nc2ccc(Cl)cn12		inconclusive: 35.5 µM [inhibitor, partial curve, poor fit]
CCCn1c(=O)n(C)c(=O)c2c(SCC(=O)NC34CC5CC(CC(C5)C3)C4)nc(CC(C)C)nc21	inactive: 3.15%	
COCCn1c(SCC(=O)Nc2c(C)n(C)n(-c3ccccc3)c2=O)nc2ccccc2c1=O	inactive: 2.71%	
COc1ccccc1NC(=O)CSc1nnc(NC(=O)c2ccco2)s1	inactive: -4.68%	
COc1cc(CNc2ccc3[nH]c(=O)[nH]c3c2)ccc1OCc1ccc(Cl)cc1		active: 11.2 µM
CCOc1cc(NC(=S)NCc2ccco2)c(OCC)cc1NC(=O)CC		inconclusive: 3.98 µM [inhibitor, partial curve, poor fit]
CC(NC(=O)CCCCCCN1C(=O)c2ccccc2C1=O)c1ccc2c(c1)CCCC2 (stereo unspecified)		inconclusive: 11.2 µM [inhibitor, partial curve, poor fit]
NC(=S)N/N=C/c1ncc(C(F)(F)F)cc1Cl		active: 4.47 µM
O=C(COc1ccccc1-c1nc(-c2ccccc2)no1)Nc1cccc([N+](=O)[O-])c1	inactive: 1.15%	
CCC(Oc1ccc(Cl)cc1)C(=O)N1CC(=O)Nc2ccccc21 (stereo unspecified)	inactive: -50.4%	

Structure (SMILES)	activity, negative = inhibition	Potency
O=C(CN1CCCc2ccccc21)NCCc1ccc(Cl)cc1		inconclusive: 5.62 µM [inhibitor, single point]
CN(C)/C=N/NC(=O)c1ccc(Cl)cc1		inconclusive: 35.5 µM [inhibitor, partial curve, poor fit]
COc1ccc(N=C2SC(CC(=O)Nc3ccccc3OC)C(=O)N2Cc2ccco2)cc1 (stereo unspecified)	inactive: 13.5%	
Cc1cc2oc(=O)cc(CSc3nnc(-c4cccs4)o3)c2cc1C(C)C	inactive: -1.86%	
COc1ccc(CCNC(=O)C(=O)NCC(c2ccco2)S(=O)(=O)c2cccs2)cc1OC (stereo unspecified)	inactive: 1.36%	
COC(=O)N/N=C/c1cc(Cl)c(OCc2ccccc2F)c(OC)c1	inactive: -11%	
Cc1ncccc1C(=O)N1CCCC(C(=O)c2ccc3c4c(cccc24)CC3)C1 (stereo unspecified)		inconclusive: 25.1 µM [inhibitor, single point]
CCC(CO)Oc1cc(NCc2ccc(C)c(C)c2)c2ncn(C(C)C)c2c1 (stereo unspecified)		inconclusive: 17.8 µM [inhibitor, single point]
CCc1ccccc1NC(=S)N(Cc1cccc(C)c1)c1cccnc1		inconclusive: 35.5 µM [inhibitor, single point]
CC1CCN(S(=O)(=O)c2ccc3c(c2)C(Cl)(Cl)C(=O)N3)CC1		inconclusive: 22.4 µM [inhibitor, single point]
O=C(Cc1ccccc1)NNC(=O)c1cnccn1		inconclusive: 3.16 µM [inhibitor, full curve, poor fit]
COc1ccc(CCNC(=O)c2ccc3c(c2)N(Cc2ccc(F)cc2)C(=O)CS3)cc1OC		inconclusive: 12.6 µM [inhibitor, single point]
Cc1ccc(NC(=O)CSc2ccc(-c3ccccn3)nn2)cc1		inconclusive: 35.5 µM [inhibitor, single point]
CCn1cc(/C=C(\NC(=O)c2ccc(OC)c(OC)c2)C(=O)N2CCN(C)CC2)c2ccccc21	inactive: -2.62%	
Cc1cc(C)c(C(O)c2ncc(-c3cccc4ccccc34)[nH]2)c(C)c1 (stereo unspecified)		inconclusive: 35.5 µM [inhibitor, single point]
COc1ccc(OC)c(NC(=O)CSc2ccc(-c3sc(C)nc3C)nn2)c1		inconclusive: 35.5 µM [inhibitor, single point]
CC(O)c1nc2ccccc2n1CCCCOc1ccccc1 (stereo unspecified)		inconclusive: 35.5 µM [inhibitor, single point]
O=C(COc1ccc(Cl)cc1)Nc1ccc2nc(SCC(=O)N3CCCC3)sc2c1		inconclusive: 0.112 µM [inhibitor, full curve, poor fit]
CC(C)(C)NC(=O)CN(Cc1cccs1)C(=O)CNS(=O)(=O)c1ccccc1		inconclusive: 35.5 µM [inhibitor, single point]
CCN(CC)c1ccc(NC(=S)NCC2CCCO2)cc1 (stereo unspecified)		inconclusive: 14.1 µM [inhibitor, single point]
O=C(c1ccc([N+](=O)[O-])o1)N1CCN(c2nc3c(F)cc(F)cc3s2)CC1		inconclusive: 3.98 µM [inhibitor, single point]
O=C1CSC(=S)N1c1cccc(F)c1		inconclusive: 25.1 µM [inhibitor, single point]
